# Measured values published in the supplement of paper PMC10037445.
# In all, about 2,900 compounds were measured (“IRF Lucia reporter activity, fold change vs agonist alone”: median about 0.9, highest 2% from about 2.8 on). Some of the results follow.
# Legend:
# [1] = tested on: RAW-Dual; assay: IRF Lucia reporter activity, fold change vs agonist alone; higher = enhanced IRF activity; settings: library stock concentration (final ~1000-fold dilution): 10 mM, agonist: MPLA (TLR4) […]
# Procedure, shortened: (§1)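 RAW-Dual macrophages were seeded in DMEM at 50,000 cells/well in 384-well plates, given 50 nL of library stock by pin tool, and given a PRR agonist 1 h later. Plates were held at 37 °C, 5% CO2 for 20 hours, after which supernatant was read for IRF by QuantiLuc luminescence and for NF-κB by QuantiBlue absorbance at 620 nm. Reporter activity is expressed as fold change over wells that received agonist alone. A well was called cytotoxic when IncuCyte confluency fell below 70% of agonist controls in both mask sets.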
# [2] = tested on: RAW-Dual; assay: IRF Lucia reporter activity, fold change vs agonist alone; cytotoxicity flag (confluency mask): not cytotoxic; higher = enhanced IRF activity
# Procedure, shortened: as §1
# [3] = tested on: RAW-Dual; assay: IRF Lucia reporter activity, fold change vs agonist alone; cytotoxicity flag (confluency mask): cytotoxic (confluency <70% of control); higher = enhanced IRF activity
# Procedure, shortened: as §1
# [4] = cytotoxicity flag (confluency mask): not cytotoxic
# [5] = agonist: 3'3'-cGAMP (STING) 10 ug/mL
smiles,measurement,setting,value
CC1=C(C(=O)Nc2cc3cn[nH]c3cc2F)C(c2ccc(C(F)(F)F)cc2)CC(=O)N1 (stereo unspecified),IRF Lucia reporter activity,[1]; [4],0.774
CC1=C(C(=O)Nc2cc3cn[nH]c3cc2F)C(c2ccc(C(F)(F)F)cc2)CC(=O)N1 (stereo unspecified) (library stock concentration (final ~1000-fold dilution): 10 mM),IRF Lucia reporter activity,[2]; [5],1.03
same,IRF Lucia reporter activity,[2]; agonist: LPS (TLR4) 0.1 ug/mL,0.792
CNC(=O)c1ccccc1Nc1nc(Nc2ccc(N3CCOCC3)cc2OC)ncc1Cl (library stock concentration (final ~1000-fold dilution): 10 mM),IRF Lucia reporter activity,[2]; [5],0.0513
same,IRF Lucia reporter activity,[2]; agonist: LPS (TLR4) 0.1 ug/mL,0.103
CNC(=O)c1ccccc1Nc1nc(Nc2ccc(N3CCOCC3)cc2OC)ncc1Cl,IRF Lucia reporter activity,[1]; [4],0.232
CCOC(=O)c1ncn2c1CN(C)C(=O)c1cc(F)ccc1-2 (library stock concentration (final ~1000-fold dilution): 10 mM),IRF Lucia reporter activity,[2]; [5],1.03
same,IRF Lucia reporter activity,[2]; agonist: LPS (TLR4) 0.1 ug/mL,0.786
CCOC(=O)c1ncn2c1CN(C)C(=O)c1cc(F)ccc1-2,IRF Lucia reporter activity,[1]; [4],1.08
O=C(O)Cc1ccc(O)cc1 (library stock concentration (final ~1000-fold dilution): 10 mM),IRF Lucia reporter activity,[2]; [5],1.06
same,IRF Lucia reporter activity,[2]; agonist: LPS (TLR4) 0.1 ug/mL,1.31
CC(C(=O)O)c1cccc(C(=O)c2ccccc2)c1 (stereo unspecified) (library stock concentration (final ~1000-fold dilution): 10 mM),IRF Lucia reporter activity,[2]; [5],1.06
same,IRF Lucia reporter activity,[2]; agonist: LPS (TLR4) 0.1 ug/mL,1.01
CC(C(=O)O)c1cccc(C(=O)c2ccccc2)c1 (stereo unspecified),IRF Lucia reporter activity,[1]; [4],0.998
CCCCN(Cc1ccc(C(=O)NO)cc1)C(=O)Nc1ccccc1,IRF Lucia reporter activity,[1]; [4],1.55
CCCCN(Cc1ccc(C(=O)NO)cc1)C(=O)Nc1ccccc1 (library stock concentration (final ~1000-fold dilution): 10 mM),IRF Lucia reporter activity,[2]; [5],0.0591
same,IRF Lucia reporter activity,[2]; agonist: LPS (TLR4) 0.1 ug/mL,1.7
COc1cc2nc(N3CCN(C(=O)C4CCCO4)CC3)nc(N)c2cc1OC.Cl (stereo unspecified) (library stock concentration (final ~1000-fold dilution): 10 mM),IRF Lucia reporter activity,[2]; [5],1.07
same,IRF Lucia reporter activity,[2]; agonist: LPS (TLR4) 0.1 ug/mL,1.14
COc1cc2nc(N3CCN(C(=O)C4CCCO4)CC3)nc(N)c2cc1OC.Cl (stereo unspecified),IRF Lucia reporter activity,[1]; [4],1.04
Cn1c(=O)cc(C(=O)Nc2ccc3c(c2)OCCO3)c2ccccc21 (library stock concentration (final ~1000-fold dilution): 10 mM),IRF Lucia reporter activity,[2]; [5],0.734
same,IRF Lucia reporter activity,[2]; agonist: LPS (TLR4) 0.1 ug/mL,0.824
Cn1c(=O)c(Oc2ccc(F)cc2F)cc2cnc(NC(CCO)CCO)nc21 (library stock concentration (final ~1000-fold dilution): 10 mM),IRF Lucia reporter activity,[2]; [5],0.851
same,IRF Lucia reporter activity,[2]; agonist: LPS (TLR4) 0.1 ug/mL,1.17
c1cc(-c2cnn3cc(-c4ccc(N5CCNCC5)cc4)cnc23)c2cccnc2c1,IRF Lucia reporter activity,[1]; cytotoxicity flag (confluency mask): cytotoxic (confluency <70% of control),0.0402
c1cc(-c2cnn3cc(-c4ccc(N5CCNCC5)cc4)cnc23)c2cccnc2c1 (library stock concentration (final ~1000-fold dilution): 10 mM),IRF Lucia reporter activity,[3]; [5],0.0227
same,IRF Lucia reporter activity,[3]; agonist: LPS (TLR4) 0.1 ug/mL,0.153
CC1(C)OC2COC3(COS(N)(=O)=O)OC(C)(C)OC3C2O1 (stereo unspecified),IRF Lucia reporter activity,[1]; [4],0.753
CC1(C)OC2COC3(COS(N)(=O)=O)OC(C)(C)OC3C2O1 (stereo unspecified) (library stock concentration (final ~1000-fold dilution): 10 mM),IRF Lucia reporter activity,[2]; [5],0.946
same,IRF Lucia reporter activity,[2]; agonist: LPS (TLR4) 0.1 ug/mL,1.04
Cc1cccc(C)c1N(CC(=O)Nc1ccc(-c2ncon2)cc1)C(=O)C1CCS(=O)(=O)CC1 (library stock concentration (final ~1000-fold dilution): 10 mM),IRF Lucia reporter activity,[2]; [5],1.04
same,IRF Lucia reporter activity,[2]; agonist: LPS (TLR4) 0.1 ug/mL,0.693
Cc1cccc(C)c1N(CC(=O)Nc1ccc(-c2ncon2)cc1)C(=O)C1CCS(=O)(=O)CC1,IRF Lucia reporter activity,[1]; [4],1.05
COc1ccc(/C=C\c2cc(OC)c(OC)c(OC)c2)cc1O (library stock concentration (final ~1000-fold dilution): 10 mM),IRF Lucia reporter activity,[2]; [5],0.102
same,IRF Lucia reporter activity,[2]; agonist: LPS (TLR4) 0.1 ug/mL,1.72
O=C(c1ccccc1)C(O)O (library stock concentration (final ~1000-fold dilution): 10 mM),IRF Lucia reporter activity,[2]; [5],1.01
same,IRF Lucia reporter activity,[2]; agonist: LPS (TLR4) 0.1 ug/mL,1.43
O=C(c1ccccc1)C(O)O,IRF Lucia reporter activity,[1]; [4],1.08
C=CC(=O)Nc1ccc2ncnc(Nc3ccc(OCc4cccc(F)c4)c(Cl)c3)c2c1.Cc1ccc(S(=O)(=O)O)cc1 (library stock concentration (final ~1000-fold dilution): 10 mM),IRF Lucia reporter activity,[2]; [5],0.56
same,IRF Lucia reporter activity,[2]; agonist: LPS (TLR4) 0.1 ug/mL,0.638
C=CC(=O)Nc1ccc2ncnc(Nc3ccc(OCc4cccc(F)c4)c(Cl)c3)c2c1.Cc1ccc(S(=O)(=O)O)cc1,IRF Lucia reporter activity,[1]; [4],0.821
COc1cc(C(C)=O)ccc1OCCCN1CCC(c2noc3cc(F)ccc23)CC1,IRF Lucia reporter activity,[1]; [4],0.754
COc1cc(C(C)=O)ccc1OCCCN1CCC(c2noc3cc(F)ccc23)CC1 (library stock concentration (final ~1000-fold dilution): 10 mM),IRF Lucia reporter activity,[2]; [5],1.06
same,IRF Lucia reporter activity,[2]; agonist: LPS (TLR4) 0.1 ug/mL,0.959
Cc1c[nH]c(-c2cnc(NCCNc3ccc(C#N)cn3)nc2-c2ccc(Cl)cc2Cl)n1.Cl (library stock concentration (final ~1000-fold dilution): 10 mM),IRF Lucia reporter activity,[2]; [5],0.424
same,IRF Lucia reporter activity,[2]; agonist: LPS (TLR4) 0.1 ug/mL,0.208
